Test results reported in PubChem BioAssay AID504832 (National Center for Advancing Translational Sciences (NCATS), 2011).
Hit rate of the full screen: of about 310,000 compounds, about 18,000 (5.8%) were called active. Inconclusive means that the source gave no clear call. Such entries were picked first, then a sample of the others. Calls follow the shape of the dose curve; as a rule, active = well fitted inhibition curve with a large enough effect; inconclusive = small, poorly fitted or top-dose-only effect, or another doubt; inactive = no such curve, though single readings can be large or run the other way. Potencies of inconclusive entries are left out as doubtful fits.

experiment: Primary qHTS for delayed death inhibitors of the malarial parasite plastid, 48 hour incubation; conditions: P. falciparum luciferase growth in erythrocytes; series mostly up to 28.7 µM; activity change, negative = inhibition: at the top concentration
In short: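 Here the parasites carry a stable luciferase gene and grow inside erythrocytes in Albumax-based RPMI medium with compound for one erythrocytic cycle. Activity is scored as loss of luminescent signal.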
% is scaled to controls: 0 for no effect and ±100 for the full control effect; potency is read from the fitted curve at half-maximal effect; tags tell the direction and shape of the fitted curve.

Row | SMILES | Potency | activity change, negative = inhibition
1 | Cc1ccc(CCNC(=O)c2nnn(-c3cccc(C)c3)c2N)cc1 | inconclusive [inhibitor, single point] | –
2 | COc1ccc2c(c1)CCc1sc(NC(=O)c3ccc(C)cc3)nc1-2 | inconclusive [inhibitor, partial curve] | –
3 | N#CCC(=O)N/N=C/c1ccc(OS(=O)(=O)c2ccccc2)cc1 | inconclusive [inhibitor, single point] | –
4 | COc1ccc(C2=C(Nc3ccc(C)cc3)c3ccccc3C2=O)cc1 | active: 0.828 µM | –
5 | O=C(Nc1ccc([N+](=O)[O-])cc1)C(=O)Nc1cccc(C(=O)O)c1 | inconclusive [inhibitor, full curve, poor fit] | –
6 | Cc1ccc(Oc2nc3c(c(=O)n(Cc4ccccc4F)c(=O)n3C)n2C)cc1 | inconclusive [inhibitor, single point] | –
7 | Cc1ccc(O)c(NC(=O)c2cc(-c3ccccc3)on2)c1 | inconclusive [inhibitor, full curve] | –
8 | O=C(CN1CCN(c2ccccc2)CC1)Nc1ccc(-n2cnnn2)cc1 | – | inactive: -12.4%
9 | COc1ccc(-c2nc(C#N)c(NC(C)c3ccccc3)o2)cc1OC (stereo not drawn) | active: 14.7 µM | –
10 | Cc1cccc(N2CCN(C(=O)COc3cccc4c3OC(C)(C)C4)CC2)c1C | inconclusive [inhibitor, single point] | –
11 | Cc1ccc(N=Nc2ccc(N)cc2C)c(S(N)(=O)=O)c1 | – | inactive: -6.29%
12 | COc1ccc(-c2onc(C)c2-c2ccc3c(c2)OCCO3)c(O)c1 | inconclusive [inhibitor, single point] | –
13 | CCOc1ccc(C(=O)NCC(=O)N2CCCCCCC2)cc1OCC | inconclusive [inhibitor, partial curve] | –
14 | COc1ccc(/C=C/C(=O)Oc2cc(O)cc(O)c2)cc1 | inconclusive [inhibitor, partial curve, poor fit] | –
15 | COc1ccc2c(/C=C/c3cc[n+](C)cc3)c[nH]c2c1 | active: 1.17 µM | –
16 | Cc1ccc(S(=O)(=O)Nc2ccccc2CNc2ccc(Br)cn2)cc1 | active: 11.7 µM | –
17 | Cc1ccc(OCCNC(=O)c2cc(C3CC3)nc3c2cnn3C(C)C)cc1 | inconclusive [inhibitor, single point] | –
18 | O=C(Nc1cccc(Cl)c1)N1CCSc2cc(Cl)ccc21 | inconclusive [inhibitor, full curve, poor fit] | –
19 | CC[C@H](C)Cc1cn([C@@H](CCCCNC(=O)OC(C)(C)C)C(=O)NCCCCCCCCCCC(=O)N2CCN(C(=O)OC(C)(C)C)CC2)nn1 | active: 2.08 µM | –
20 | COc1ccc(S(=O)(=O)N2CCc3ccccc32)cc1C(=O)Nc1cccnc1 | inconclusive [inhibitor, partial curve] | –
21 | Cc1ccc2[nH]c(=O)c(CN(CC3CCCO3)C(=S)NCc3ccco3)cc2c1 (stereo not drawn) | inconclusive [inhibitor, partial curve, poor fit] | –
22 | Cc1ccc(S(=O)(=O)n2ccc(-c3ccc(OCc4c(F)cccc4Cl)cc3)n2)cc1 | active: 9.28 µM | –

Row | SMILES | Potency | activity change, negative = inhibition
23 | Cc1ccccc1OCc1nc(C#N)c(N2CCCC2)o1 | inconclusive [inhibitor, single point] | –
24 | Cc1cccc(C)c1NC(=O)CNC(=O)CCCc1c[nH]c2ccccc12 | inconclusive [inhibitor, single point] | –
25 | Cc1coc2c(C)c3oc(=O)c(CCC(=O)N4CCC(C(=O)NCCCC(=O)O)(c5ccccc5)CC4)c(C)c3cc12 | inconclusive [inhibitor, partial curve] | –
26 | CCOc1ccc(C(Nc2cccnc2)c2cc(Cl)c3cccnc3c2O)cc1 (stereo not drawn) | inconclusive [inhibitor, partial curve, poor fit] | –
27 | Cc1cc(Cl)c2oc(C(=O)N(C)CCc3cnn(C)c3)c(C)c2c1 | – | inactive: -1.33%
28 | CC[C@@H](C)C(NC(=O)OC(C)(C)C)c1cn([C@@H](Cc2cc3ccccc3[nH]2)C(=O)N2CCN(C(=O)OC(C)(C)C)CC2)nn1 (stereo partly drawn) | inconclusive [inhibitor, full curve, poor fit] | –
29 | CCOc1ccc(NC(=O)c2ccc3c(=O)n(-c4ccc(OC)cc4OC)c(=S)[nH]c3c2)cc1 | inconclusive [inhibitor, partial curve] | –
30 | CC(=O)Nc1ccc(S(=O)(=O)N(Cc2ccccc2)c2ccccn2)cc1 | inconclusive [inhibitor, partial curve] | –
31 | COCCCn1c(CCC(=O)O)ccc1-c1ccc(F)cc1 | inconclusive [inhibitor, single point] | –
32 | CCOCCCNC(=O)c1cn(CC)c2ccc(S(=O)(=O)N3CCC(C)CC3)cc2c1=O | – | inactive: -25.1%
33 | CCc1c(C)sc2nc(C(C)C)nc(SCC(=O)N3CCc4ccccc4C3)c12 | active: 11.7 µM | –
34 | Cc1cc(=O)oc(C)c1C(=O)Nc1cccc(F)c1 | – | inactive: -0.475%
35 | Cc1cccc(C(=O)NCc2nnc(SCC(=O)NC3CCCC3)n2C)c1 | – | inactive: 18.1%
36 | O=C(O)Cc1cn(-c2ccccc2)nc1-c1ccccc1 | – | inactive: 34.7%
37 | CCNc1c(N)c(=O)oc2ccccc12 | inconclusive [inhibitor, full curve] | –
38 | Cc1c(C(=O)N2CCCCC2)oc2ccc(S(=O)(=O)N3CC(C)CC(C)C3)cc12 (stereo not drawn) | inconclusive [inhibitor, single point] | –
39 | O=C(NCc1ccc(-n2cccc2)cc1)c1cccc(F)c1 | – | inactive: 3.15%
40 | COc1ccc(/C=N/NC(=O)c2ccc3ccccc3c2)cc1OS(=O)(=O)c1ccc(NC(C)=O)cc1 | inconclusive [inhibitor, partial curve, poor fit] | –
41 | O=C(NCCc1ccccc1)c1ccc(NS(=O)(=O)c2ccc3[nH]c(=O)[nH]c3c2)cc1 | – | inactive: 52.1%
42 | CC(=O)N1c2ccc(S(=O)(=O)N3CCC(C(=O)N4CCCCC4)CC3)cc2CC1C (stereo not drawn) | inconclusive [inhibitor, single point] | –
43 | Cc1c(C(c2ccc(F)cc2)c2c(O)c3ccccc3oc2=O)c(=O)n(-c2ccccc2)n1C (stereo not drawn) | inconclusive [inhibitor, full curve, poor fit] | –
